# Measurements: PubChem BioAssay AID1963576 (National Center for Advancing Translational Sciences (NCATS), 2024)
# In all, about 46,000 compounds went through this assay and about 60 (0.1%) were called active. About 3% were inconclusive and are not listed. The call rests on the fitted dose curve; in most records, active means well fitted inhibition curve with a large enough effect; inconclusive means small, poorly fitted or top-dose-only effect; inactive means no such curve, though single readings can be large or run the other way. This is one part of the list.
# Assay: Primary qHTS assay for Inhibitors of ovarian cancer metastasis using an organotypic tumor microenvironment (TME) model. Further: nearly all actives have a fitted effect of over 65% in size.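 On Potency: count of GFP cancer cells still attached after washing and fixation.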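 On activity change, negative = inhibition: plate controls were DMSO wells for no effect and tomatine positive control wells for full effect.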
# Conditions: SKOV3ip1-GFP adhesion/invasion on 3D omental model, fluorescence; series mostly up to 45.8 µM; activity change, negative = inhibition: at the top concentration
# How it was run: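 Adhesion/invasion was scored as fixed GFP-labeled SKOV3ip1 cell counts (488/509 nm), normalized to DMSO and tomatine controls. Cancer cells in serum-free medium, with four compound doses (0.36-46 umol/L), sat 2 hr at RT then 16 hr at 37 C on a 48 hr fibroblast/mesothelial/ECM culture.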
# Potency means the concentration at half of the fitted maximal effect.
Compound,outcome,"activity change, negative = inhibition",Potency
O=C(NCCc1ccccc1)C1CCN(c2nc3ccccc3nc2C(F)(F)F)CC1,inactive,–,–
COCCn1c(SCC(=O)c2ccc(C)cc2)nc2cc(C(=O)NC3CCCC3)ccc2c1=O,inactive,–,–
COc1ccccc1N1CCN(c2ncnc3c2cnn3-c2ccc(C)cc2)CC1,–,inactive: 3.95%,–
CCCCCSc1nnc2c(n1)[nH]c1c(C)cccc12,–,inactive: 0.0556%,–
Cc1cc(C)cc(N2CCn3c2nc2c3c(=O)n(Cc3c(F)cccc3Cl)c(=O)n2C)c1,–,inactive: 6.58%,–
O=S(=O)(NCC(c1ccco1)N1CCN(c2ccccc2)CC1)c1cc(F)ccc1F (stereo unspecified),–,inactive: 10.7%,–
CCc1ccc(/C=C(/C#N)c2nc(-c3ccc(C)cc3)cs2)cc1,inactive,–,–
CCCOc1ccc(C(=O)N2CCC(c3nc4ccccc4s3)CC2)cc1,–,inactive: 11.4%,–
O=C(C1CC1)N1CCc2cc(Br)cc(S(=O)(=O)Nc3ccc(F)c(F)c3)c21,–,inactive: 34.5%,–
CC(C)(C)OC(=O)N1CCC(c2c(C(=O)NCCN3CCOCC3)cnn2-c2cccc(Cl)c2)CC1,–,inactive: -7.57%,–
CCc1ccc2oc(-c3ccc(C)c(NC(=O)Cc4ccccc4)c3)nc2c1,inactive,–,–
O=C(Cn1c(=O)c(CNc2ccccc2)cc2cc3c(cc21)OCCO3)Nc1ccccc1Cl,–,inactive: -6.51%,–
Cc1nn(C)c2c1c(C(F)(F)F)cc(=O)n2Cc1ccc(Br)cc1F,–,inactive: -27.8%,–
O=c1c(S(=O)(=O)c2ccccc2)cn(Cc2ccccc2)c2cc(N3CCCC3)c(F)cc12,–,inactive: 5.83%,–
CCOc1ccc(N(Cc2ccccc2)C(=O)c2nc(SC)ncc2Cl)cc1,–,inactive: -2.82%,–
Cn1c(=O)c2c(nc(CN3CCN(c4ccccc4F)CC3)n2Cc2ccc(F)cc2)n(C)c1=O,–,inactive: 0.406%,–
COc1ccc(OC)c(C2CC(=O)Nc3c2c(=O)[nH]c2nc4ccccc4n32)c1 (stereo unspecified),–,inactive: 12.5%,–
N#Cc1ccc(NC(=O)COCc2cc(-c3ccco3)on2)cc1,–,inactive: -3.27%,–
CCOC(=O)C1CCN(CCC(=O)Nc2ccccc2OC)CC1,–,inactive: -5.02%,–
Cc1cc(C)cc(C(=O)NCCc2sc(-c3ccc(F)cc3)nc2C)c1,–,inactive: 10.2%,–
Cc1cccc(NC(=O)CSc2nc3n[nH]c(C)c3c(=N)n2-c2cccc(Cl)c2)c1,–,inactive: 6.97%,–
Cc1ccc(Cl)cc1NC(=O)Cn1c(=O)n(C(C)C)c(=O)c2oc3ccccc3c21,–,inactive: 1.93%,–
Cc1nn2c(=O)cc(COC(=O)c3cccc(NC(=O)c4ccc(F)cc4)c3)nc2s1,inactive,–,–

Compound,outcome,"activity change, negative = inhibition",Potency
Cc1cccc(C(C)C)c1NC(=O)c1ccc2c(c1)CCN2S(C)(=O)=O,–,inactive: 1.55%,–
Cc1cccc(Nc2nnc(-c3ccc(C)c(S(=O)(=O)N4CCN(C)CC4)c3)c3ccccc23)c1,–,inactive: -2.42%,–
CC(=O)Nc1cccc(NC(=O)CSc2ccc(-c3sc(-c4ccccc4)nc3C)nn2)c1,–,inactive: -3.32%,–
O=C(O)CCc1ccc(-c2ccccc2)n1-c1ccc(C(=O)O)cc1,–,inactive: 2.85%,–
Cc1ccc(-n2nc(-c3ccccc3)c3cnc4cc5c(cc4c32)OCO5)cc1C,inactive,–,–
CCn1c(CN2CCC(C)CC2)nc2cc(NC(=O)c3ccc([N+](=O)[O-])cc3)ccc21,–,inactive: -18.3%,–
CC(C)CCNC(=O)C(=O)Nc1c2c(nn1-c1ccc(Cl)cc1)CSC2,–,inactive: -11.4%,–
COc1ccc(-c2cc(C(=O)NCCc3ccc(OC)c(OC)c3)c3c(-c4ccc(F)cc4)[nH]nc3n2)cc1,–,inactive: 4.2%,–
Cc1cc(C)n(-c2nc(C)c(C)c(=O)n2CC(=O)Nc2cccc([N+](=O)[O-])c2)n1,–,inactive: 13.2%,–
CCOC(=O)c1ccc(NC(=O)Cn2c3ncccc3c(=O)n2-c2ccc(C)c(C)c2)cc1,–,inactive: 0.287%,–
Cc1ccc(NC(=O)c2ccc3snnc3c2)cc1C,inactive,–,–
COc1ccccc1NC(=O)C1CCCN(c2ncnc3onc(-c4ccc(F)cc4)c23)C1 (stereo unspecified),–,inactive: -0.673%,–
CCC(C)NC(=O)c1c(C)oc2nc(C)nc(N3CCOCC3)c12 (stereo unspecified),–,inactive: 4.9%,–
CCOC(=O)C(C)Sc1nc(-c2ccccc2)ccc1C#N (stereo unspecified),–,inactive: -1.16%,–
COc1cccc(NC(=O)C2CCN(S(=O)(=O)c3ccc4[nH]c5c(c4c3)CCCCC5)CC2)c1,–,inactive: 1.62%,–
COC(=O)c1ccccc1NC(=O)c1nn(-c2ccc(OC)cc2)c(=O)c2c1c1ccccc1n2C,–,inactive: -14.5%,–
COc1cccc(NC(=O)c2oc3ccc(S(=O)(=O)N4CCCCCC4)cc3c2C)c1,–,inactive: 18.8%,–
CCOc1ccc(S(=O)(=O)N2CCC(c3ccncc3)CC2)cc1,–,inactive: 2.85%,–
Cc1cc(C)n2nc(CNS(=O)(=O)c3ccccc3)nc2n1,–,inactive: 2.26%,–
CCOC(=O)c1ccccc1NC(=O)COC(=O)CC(C)(C)CC1=NS(=O)(=O)c2ccccc2N1,inactive,–,–
COc1ccc(S(=O)(=O)NCC(c2ccc(N(C)C)cc2)N2CCc3ccccc32)cc1F (stereo unspecified),–,inactive: -15.3%,–
O=C(O)c1c(Cl)c(Cl)c(Cl)c(Cl)c1-c1c2cc(I)c(=O)c(I)c-2oc2c(I)c(O)c(I)cc12,–,inactive: -4.96%,–
CCCNC(=O)N1[C@H](c2cccs2)[C@@H](C)C(=O)[C@@H](C)[C@@H]1c1cccs1,–,inactive: -0.999%,–

Compound,outcome,"activity change, negative = inhibition",Potency
COc1cccc(N2CCN(c3ncnc4c3c(-c3ccccc3)cn4-c3cccc(C(F)(F)F)c3)CC2)c1,–,inactive: 5.2%,–
CCN(CC)C(=O)Cn1c(=O)n(CCc2ccccc2)c(=O)c2ccccc21,inactive,–,–
Cc1cc(Nc2ccc(Br)c(C)c2)n2nc(-c3ccco3)nc2n1,–,inactive: 6.21%,–
CN[C@H](CC(C)C)C(=O)N[C@H]1C(=O)N[C@@H](CC(N)=O)C(=O)N[C@@H]2C(=O)N[C@H]3C(=O)N[C@H](C(=O)N[C@H](C(=O)O)c4cc(O)cc(O)c4-c4cc3ccc4O)[C@H](O)c3ccc(c(Cl)c3)Oc3cc2cc(c3O[C@@H]2O[C@H](CO)[C@@H](O)[C@H](O)[C@@H]2O[C@H]2C[C@](C)(N)[C@H](O)[C@H](C)O2)Oc2ccc(cc2Cl)[C@H]1O,–,inactive: -0.904%,–
COc1ccc(OC)c(NC(=O)N2CC3CCCN3c3ccccc32)c1 (stereo unspecified),–,inactive: 6.4%,–
CCOC(=O)c1cccc(NC(=O)N2CC=C(c3c[nH]c4ccccc34)CC2)c1,inactive,–,–
COCCNc1oc(-c2ccc(OC)cc2)nc1C#N,–,inactive: 32.9%,–
CC(=O)c1ccc(NC(=O)CC2Oc3ccc(C)cc3NC2=O)cc1 (stereo unspecified),–,inactive: -1.25%,–
CCOC(=O)Cc1c(C(=O)OCC)nnc2c(-c3ccccc3)c(C)nn12,inactive,–,–
COc1cccc(NC(=O)CSc2c3c(nc4ccccc24)CCCC3)c1,–,–,active: 11.2 µM
Cc1cccc(NC(=O)CN2C(=O)CSc3ccc(S(=O)(=O)N4CCCC4)cc32)c1C,–,inactive: -7.31%,–
CCOc1ccc(N(CC)S(=O)(=O)N2CCCC(C(=O)Nc3ccc(OC)c(Cl)c3)C2)cc1 (stereo unspecified),–,inactive: 9.21%,–
Cc1nn(C(=O)c2cccc([N+](=O)[O-])c2C)c(C)c1S(=O)(=O)N1CCCCCC1,–,inactive: -0.134%,–
Cc1c(Cl)ccc2sc(N3CCN(C(=O)C4CC4)CC3)nc12,–,inactive: -7.81%,–
COc1ccc(-c2onc(C)c2C)cc1S(=O)(=O)N1CCN(c2cc(C)ccc2C)CC1,inactive,–,–
COc1ccc(-c2cc3nc(C)c(CCC(=O)NC(C)c4ccccc4)c(C)n3n2)c(OC)c1 (stereo unspecified),–,inactive: -9.35%,–
O=C(Nc1ccccc1C(F)(F)F)N1CC=C(c2c[nH]c3ccccc23)CC1,inactive,–,–
COC(=O)CC(=O)CSc1nc2cc(C(=O)NCC(C)C)ccc2c(=O)n1CCc1ccccc1,inactive,–,–
CC1CCN(S(=O)(=O)c2ccc3c(c2)CCN3C(=O)Nc2ccc(Br)cc2F)CC1,–,inactive: 3.37%,–
Cc1cccc(NC(=O)N2CCC(CN3CCCCCC3)CC2)c1C,inactive,–,–
Cc1ccc(C2CCN(C(=O)c3cnn(-c4ccc(C)c(C)c4)c3C3CCN(C(=O)OC(C)(C)C)CC3)C2)cc1 (stereo unspecified),inactive,–,–
Cc1cc(C)c(OCCOCCn2c(-c3ccc(Cl)cc3)nc3ccccc3c2=O)c(C)c1,–,inactive: -5.68%,–
Cc1nc(SCC(=O)Nc2ccc(C(=O)O)cc2)n[nH]1,–,inactive: 6.16%,–

Compound,outcome,"activity change, negative = inhibition",Potency
COc1ccc(OC)c(NC(=O)CC(=O)Nc2ccc3nc4n(c(=O)c3c2)CCCCC4)c1,inactive,–,–
CCOc1ccccc1C(=O)N1CCC(c2nc3ccccc3o2)CC1,–,inactive: -29.7%,–
CCc1ccccc1NC(=O)Cn1nc(N2CCN(c3ccccc3OC)CC2)ccc1=O,–,inactive: 2.25%,–
Cc1ccc(C)c(N2CCN(C(=O)C(CC(C)C)NS(=O)(=O)c3ccc4nc(C)sc4c3)CC2)c1 (stereo unspecified),–,inactive: 0.886%,–
Cc1cc(F)ccc1NC(=O)CCn1nc(C)c(S(=O)(=O)N2CCCCC2)c1C,–,inactive: 5.27%,–
COc1ccccc1C(=O)Nc1ccc(S(=O)(=O)Nc2ncccn2)cc1,–,inactive: 5.15%,–
Cc1cccc(-n2nc(C)c(C(=O)N3CCN(c4ccccc4)CC3)c2-n2cccc2)c1,–,inactive: 3.33%,–
CS(=O)(=O)N(Cc1ccccc1)c1ccc(C(=O)Nc2ccc(Cl)cc2)cc1,–,inactive: -29.6%,–
NC(=O)CSc1nc2ccc(NC(=O)COc3ccccc3Cl)cc2s1,–,inactive: 6.37%,–
Cc1cccc(OCCCn2c(CCNC(=O)C3CCCCC3)nc3ccccc32)c1,inactive,–,–
CCOc1ccccc1OCCNC(C)Cc1ccc(OC)c(S(N)(=O)=O)c1 (stereo unspecified),–,inactive: 11.6%,–
Cn1c(=O)[nH]c(=O)c2c1nc(CN1CCN(c3ccccc3F)CC1)n2Cc1ccc(F)cc1,–,inactive: 14.6%,–
COc1ccccc1CN(Cc1c(Cl)cccc1Cl)S(=O)(=O)c1ccc(Br)cc1,–,inactive: 4.94%,–
Cc1ccc(C)c(N2CCN(c3nc4ccc(C(=O)c5ccccc5)cc4n4cnnc34)CC2)c1,–,inactive: 6.41%,–
CCOC(=O)c1cnc2c(C)cccc2c1Nc1ccc(OC(C)C)cc1,–,inactive: 1.77%,–
COc1cccc(-c2nc(SCC(=O)Nc3ccc4c(c3)OCCO4)c(-c3ccc(C)cc3)[nH]2)c1,–,inactive: -18.4%,–
COc1ccc(Cl)cc1NC(=O)c1cc(S(=O)(=O)N(C)Cc2ccccc2)ccc1F,–,inactive: 9.83%,–
Cc1ccc(Cl)cc1NC(=O)c1oc2ccc(S(=O)(=O)N3CCCCCC3)cc2c1C,–,inactive: -4.36%,–
O=C(NCCc1ccc(Cl)cc1)c1ccc(CSCc2cccc(Cl)c2)o1,–,inactive: -11.5%,–
Cn1cc(S(=O)(=O)c2cccc(Cl)c2)c(=O)c2cc(F)c(N3CCCCC3)cc21,–,inactive: 2.66%,–
CCCN1C(=O)C(Cc2nc3ccccc3c(=O)n2-c2ccc(OC)cc2)c2cc(C)ccc21 (stereo unspecified),–,inactive: 4.46%,–
CCc1cccc(C)c1NC(=O)CSc1nc2c(c(=O)[nH]1)CCC2,–,inactive: -5.04%,–
